Assay results reported in US11178870B2 (priority 2017, dated 2021).

Tested on: Colletotrichum orbiculare
Conditions: in vivo

SMILES	Test H control value
CCn1c(-c2c(F)cc(OC)cc2F)c(-n2nc(C)cc2C)ccc1=O [Compound 94]	H (key: H shows the control value more than 50%; L shows the control value of 50% or less)
CCn1c(-c2ccc(F)cc2F)c(-n2cc(Cl)cn2)ccc1=O [Compound 145]	H (key: H shows the control value more than 50%; L shows the control value of 50% or less)
CCn1c(-c2c(F)cccc2F)c(-c2ocnc2Cl)cc(Cl)c1=O [Compound 50]	H (key: H shows the control value more than 50%; L shows the control value of 50% or less)
O=c1ccc(-c2cccnc2Cl)c(-c2c(F)cc(F)cc2F)n1CC(F)F [Compound 67]	H (key: H shows the control value more than 50%; L shows the control value of 50% or less)
CCn1c(-c2c(F)cc(F)cc2F)c(-c2c(Cl)cnn2C)cc(Cl)c1=O [Compound 22]	H (key: H shows the control value more than 50%; L shows the control value of 50% or less)
CCn1c(-c2c(F)cc(OC)cc2F)c(-n2c(C)ccc2C)cc(Cl)c1=O [Compound 126]	H (key: H shows the control value more than 50%; L shows the control value of 50% or less)
CCn1c(-c2ccc(F)cc2F)c(-n2cc(Cl)cn2)cc(Cl)c1=O [Compound 148]	H (key: H shows the control value more than 50%; L shows the control value of 50% or less)
CCn1c(-c2c(F)cc(F)cc2F)c(-n2cc(NC(C)=O)cn2)cc(Cl)c1=O [Compound 163]	L (key: H shows the control value more than 50%; L shows the control value of 50% or less)
CCn1c(-c2c(F)cc(F)cc2F)c(-c2ocnc2Br)cc(Br)c1=O [Compound 97]	H (key: H shows the control value more than 50%; L shows the control value of 50% or less)
Cn1c(-c2c(F)cc(F)cc2F)c(-n2cc(Cl)cn2)ccc1=O [Compound 174]	H (key: H shows the control value more than 50%; L shows the control value of 50% or less)
CCn1c(-c2c(F)cc(F)cc2F)c(-n2nc(C)c(Br)c2C)cc(Br)c1=O [Compound 117]	L (key: H shows the control value more than 50%; L shows the control value of 50% or less)
O=c1c(Cl)cc(-n2cc(Cl)cn2)c(-c2c(F)cc(F)cc2F)n1CC(F)(F)F [Compound 121]	L (key: H shows the control value more than 50%; L shows the control value of 50% or less)
CCn1c(-c2c(F)cc(F)cc2F)c(-n2cc(I)cn2)cc(Cl)c1=O [Compound 160]	L (key: H shows the control value more than 50%; L shows the control value of 50% or less)
CCn1c(-c2c(F)cccc2F)c(-c2cnc(OC)o2)cc(Cl)c1=O [Compound 130]	L (key: H shows the control value more than 50%; L shows the control value of 50% or less)
CCn1c(-c2c(F)cc(F)cc2F)c(-n2cc(C(F)(F)F)cn2)cc(Cl)c1=O [Compound 155]	H (key: H shows the control value more than 50%; L shows the control value of 50% or less)
CCn1c(-c2ccccc2Cl)c(-n2ncc(C)c2Cl)cc(Cl)c1=O [Compound 179]	H (key: H shows the control value more than 50%; L shows the control value of 50% or less)
CCn1c(-c2c(F)cc(F)cc2F)c(-n2c(Cl)nc(Cl)c2Cl)cc(Cl)c1=O [Compound 137]	H (key: H shows the control value more than 50%; L shows the control value of 50% or less)
O=c1c(Cl)cc(-c2cccnc2Cl)c(-c2c(F)cc(F)cc2F)n1CC(F)F [Compound 68]	H (key: H shows the control value more than 50%; L shows the control value of 50% or less)
CCn1c(-c2c(F)cccc2F)c(-c2ocnc2OC)cc(Cl)c1=O [Compound 91]	L (key: H shows the control value more than 50%; L shows the control value of 50% or less)
CCn1c(-c2c(F)cc(OC)cc2F)c(C2OCCO2)cc(Cl)c1=O [Compound 12]	H (key: H shows the control value more than 50%; L shows the control value of 50% or less)
CCn1c(-c2c(F)cccc2F)c(-n2cc(Cl)cn2)cc(Cl)c1=O [Compound 53]	H (key: H shows the control value more than 50%; L shows the control value of 50% or less)
CCn1c(-c2c(F)cc(NC)cc2F)c(-c2cnco2)cc(Cl)c1=O [Compound 119]	L (key: H shows the control value more than 50%; L shows the control value of 50% or less)
CCn1c(-c2ccccc2Cl)c(-n2cc(Cl)cn2)cc(Br)c1=O [Compound 173]	H (key: H shows the control value more than 50%; L shows the control value of 50% or less)
CCn1c(-c2c(F)cc(F)cc2F)c(-n2cc(Cl)c(C)n2)ccc1=O [Compound 141]	H (key: H shows the control value more than 50%; L shows the control value of 50% or less)
CCn1c(-c2ccc(F)cc2F)c(-n2cc(Cl)cn2)cc(Br)c1=O [Compound 150]	H (key: H shows the control value more than 50%; L shows the control value of 50% or less)
CCn1c(-c2c(F)cc(F)cc2F)c(-n2ncnc2Br)cc(Br)c1=O [Compound 46]	H (key: H shows the control value more than 50%; L shows the control value of 50% or less)

SMILES	Test H control value
CCn1c(-c2c(F)cccc2F)c(-c2oc(I)nc2I)cc(Cl)c1=O [Compound 75]	L (key: H shows the control value more than 50%; L shows the control value of 50% or less)
COc1cc(F)c(-c2c(-n3cc(Cl)cn3)cc(Cl)c(=O)n2CC(F)F)c(F)c1 [Compound 111]	H (key: H shows the control value more than 50%; L shows the control value of 50% or less)
O=c1c(Cl)cc(-c2cccnc2Cl)c(-c2c(F)cccc2F)n1CC(F)F [Compound 57]	H (key: H shows the control value more than 50%; L shows the control value of 50% or less)
CCn1c(-c2ccc(OC)cc2Cl)c(-c2cnco2)cc(Cl)c1=O [Compound 33]	L (key: H shows the control value more than 50%; L shows the control value of 50% or less)
CCn1c(-c2c(F)cc(F)cc2F)c(-c2ocnc2F)cc(Cl)c1=O [Compound 120]	H (key: H shows the control value more than 50%; L shows the control value of 50% or less)
CCn1c(-c2c(F)cc(F)cc2F)c(-c2cccnc2Cl)ccc1=O [Compound 61]	H (key: H shows the control value more than 50%; L shows the control value of 50% or less)
CCn1c(-c2c(F)cc(OC)cc2F)c(-c2ocnc2Br)cc(Cl)c1=O [Compound 118]	H (key: H shows the control value more than 50%; L shows the control value of 50% or less)
CCn1c(-c2c(F)cc(OC)cc2F)c(-n2cc(Br)cn2)cc(Br)c1=O [Compound 78]	H (key: H shows the control value more than 50%; L shows the control value of 50% or less)
CCn1c(-c2c(F)cccc2F)c(-c2cnc(N)o2)cc(Cl)c1=O [Compound 135]	L (key: H shows the control value more than 50%; L shows the control value of 50% or less)
CCn1c(-c2c(F)cc(F)cc2F)c(-c2cnco2)cc(Br)c1=O [Compound 89]	H (key: H shows the control value more than 50%; L shows the control value of 50% or less)
CCN1C(=O)CCC(n2cccn2)=C1c1c(F)cccc1F [Compound 30]	L (key: H shows the control value more than 50%; L shows the control value of 50% or less)
CCn1c(-c2c(F)cc(F)cc2F)c(-c2cccnc2Cl)cc(Cl)c1=O [Compound 62]	H (key: H shows the control value more than 50%; L shows the control value of 50% or less)
CCn1c(-c2c(F)cccc2F)c(C2OCCO2)cc(Cl)c1=O [Compound 13]	H (key: H shows the control value more than 50%; L shows the control value of 50% or less)
CCn1c(-c2c(F)cc(F)cc2F)c(-n2nc(C)cc2C)ccc1=O [Compound 93]	H (key: H shows the control value more than 50%; L shows the control value of 50% or less)
CCn1c(-c2c(F)cccc2F)c(-n2cccn2)ccc1=O [Compound 31]	H (key: H shows the control value more than 50%; L shows the control value of 50% or less)
CCn1c(-c2c(F)cccc2F)c(-c2ncc(OC)o2)cc(Cl)c1=O [Compound 162]	L (key: H shows the control value more than 50%; L shows the control value of 50% or less)
CCn1c(-c2c(F)cc(OC)cc2F)c(-c2cccnc2Cl)ccc1=O [Compound 79]	H (key: H shows the control value more than 50%; L shows the control value of 50% or less)
CCn1c(-c2c(F)cc(F)cc2F)c(-n2cc(C)cn2)cc(C)c1=O [Compound 86]	H (key: H shows the control value more than 50%; L shows the control value of 50% or less)
CCn1c(-c2c(F)cc(F)cc2F)c(-n2cc(C(F)F)cn2)cc(Cl)c1=O [Compound 124]	H (key: H shows the control value more than 50%; L shows the control value of 50% or less)
Cn1c(-c2c(F)cc(F)cc2F)c(-n2cc(Cl)cn2)cc(Br)c1=O [Compound 176]	H (key: H shows the control value more than 50%; L shows the control value of 50% or less)
CCn1c(-c2c(F)cc(F)cc2F)c(-n2cc(Br)c(C)n2)ccc1=O [Compound 108]	H (key: H shows the control value more than 50%; L shows the control value of 50% or less)
CCn1c(-c2c(F)cccc2F)c(-c2ccsc2Br)cc(Cl)c1=O [Compound 45]	L (key: H shows the control value more than 50%; L shows the control value of 50% or less)
Cn1c(-c2c(F)cccc2F)c(-c2cccnc2Cl)cc(Cl)c1=O [Compound 105]	H (key: H shows the control value more than 50%; L shows the control value of 50% or less)
CCn1c(-c2c(F)cc(F)cc2F)c(-c2oc(Br)nc2Br)cc(Br)c1=O [Compound 96]	L (key: H shows the control value more than 50%; L shows the control value of 50% or less)
CCn1c(-c2ccccc2Cl)c(-n2cc(Cl)cn2)ccc1=O [Compound 169]	H (key: H shows the control value more than 50%; L shows the control value of 50% or less)
CCn1c(-c2ccc(OC)cc2F)c(-n2cc(Cl)cn2)cc(Br)c1=O [Compound 152]	H (key: H shows the control value more than 50%; L shows the control value of 50% or less)
